# Experimental data reported in the supplement of paper PMC9135407.
# “And” between values parts separate entries of the source, which are not always exact repeats. Identical values can stand only once. Counter-ions that a name gives are not always drawn. About 620 (11%) of roughly 5,800 compounds showed activity.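 The calls were made as follows: active = score above a cut-off or among the top three wells of a plate; in these data no inactive exceeds 0.85.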 The entries are a selection whose mix differs from that of the whole data set.
# Tested on: primary human hepatic stellate cells (donor 1)
# Assay: scaled lipid accumulation score (0 = DMSO-like, 1 = nortriptyline-like); higher = stronger HSC inactivation (lipid re-accumulation), active = hit call of the paper
# Settings: 48 h
# Description: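 Primary lipid accumulation screen in primary human hepatic stellate cell myofibroblasts (donor 1, passage 8) in 384-well plates. 100 nL of library compound was pin-transferred into 30 µL medium in duplicate, and cells were treated for 48 h. The 'Scaled' score combines distance from plate baseline, toxicity and reproducibility penalties, and is normalised to nortriptyline (positive) and DMSO (negative) controls on each plate. A hit is defined as scaled >0.85 or among the top 3 wells per plate.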
# [1] = library stock concentration: 80 uM
# [2] = library stock concentration: 400 uM
# [3] = library stock concentration: 2 mM
# [4] = library stock concentration: 3.33 mM
# [5] = library stock concentration: 10 mM
# [6] = library stock concentration: 1 mM
smiles,measurement,setting,value
CN(C)CC[C@H](CSc1ccccc1)Nc1ccc(S(=O)(=O)NC(=O)c2ccc(N3CCN(Cc4ccccc4-c4ccc(Cl)cc4)CC3)cc2)cc1[N+](=O)[O-],scaled lipid accumulation score,[1],inactive: ≤ -0.009
same,scaled lipid accumulation score,[2],inactive: ≤ -0.009 and inactive: ≤ -0.005
same,scaled lipid accumulation score,[3],inactive: 0.097 and inactive: 0.066
same,scaled lipid accumulation score,[4],inactive: ≤ 0
same,scaled lipid accumulation score,[5],inactive: ≤ 0 and inactive: 0.132 and inactive: 0.039
C[C@H]1COC2=C1C(=O)C(=O)c1c2ccc2c1CCCC2(C)C [Cryptotanshinone],scaled lipid accumulation score,[4],inactive: ≤ 0
same,scaled lipid accumulation score,[5],inactive: 0.306
NC(=O)Cc1cccc(C(=O)c2ccccc2)c1N [Nepafenac],scaled lipid accumulation score,[4],inactive: ≤ 0
same,scaled lipid accumulation score,[5],inactive: 0.098
CC(=O)SCC[N+](C)(C)C [Acetylthiocholine chloride],scaled lipid accumulation score,[5],inactive: ≤ 0
CCCCC1=NC2(CCCC2)C(=O)N1Cc1ccc(-c2ccccc2-c2nnn[nH]2)cc1 [Irbesartan],scaled lipid accumulation score,library stock concentration: 4.7 mM,inactive: ≤ 0
same,scaled lipid accumulation score,[5],inactive: ≤ -0.027
CC(C)COC(=O)OCN1C(=O)CN(CCN2CC(=O)N(COC(=O)OCC(C)C)C(=O)C2)CC1=O [Sobuzoxane],scaled lipid accumulation score,[5],inactive: ≤ 0
Nc1ccccc1NC(=O)c1ccc(CNC(=O)OCc2cccnc2)cc1 [Entinostat (MS-275)],scaled lipid accumulation score,[4],inactive: 0.152
same,scaled lipid accumulation score,[5],inactive: 0.418
Nc1ccccc1NC(=O)c1ccc(CNC(=O)OCc2cccnc2)cc1,scaled lipid accumulation score,[1],inactive: ≤ 0
same,scaled lipid accumulation score,[2],inactive: ≤ 0
same,scaled lipid accumulation score,[6],inactive: 0.014
same,scaled lipid accumulation score,[3],inactive: ≤ 0
same,scaled lipid accumulation score,[5],inactive: 0.628
O=C1NCN(c2ccccc2)C12CCN(CCCC(c1ccc(F)cc1)c1ccc(F)cc1)CC2 [Fluspirilen],scaled lipid accumulation score,,inactive: ≤ 0
CC(C)(C)C(=O)OCOC(=O)[C@@H]1N2C(=O)[C@@H](NC(=O)[C@H](N)c3ccccc3)[C@H]2SC1(C)C [Pivampicillin],scaled lipid accumulation score,,inactive: ≤ 0
CC1(C)Oc2ccc(C#N)cc2[C@H](N2CCCC2=O)[C@H]1O [Cromakalim],scaled lipid accumulation score,[5],inactive: 0.064
CCCCOc1c(C(=O)c2c(F)cc(C)cc2F)c[nH]c2nncc1-2,scaled lipid accumulation score,[4],inactive: 0.505
same,scaled lipid accumulation score,[5],inactive: 0.263
O=C(c1ccc(C=Cc2n[nH]c3ccccc23)cc1)N1CCNCC1,scaled lipid accumulation score,[5],active: 1.27
O=[N+]([O-])c1cccc2c(Br)[nH]nc12 [3-Bromo-7-nitroindazole],scaled lipid accumulation score,[5],inactive: 0.559 and inactive: 0.021
O=[N+]([O-])c1cccc2c(Br)[nH]nc12 [3-bromo-7-Nitroindazole],scaled lipid accumulation score,[6],inactive: ≤ 0
CN(C)C(=O)COC(=O)Cc1ccc(OC(=O)c2ccc(NC(=N)N)cc2)cc1 [Camostat Mesilate],scaled lipid accumulation score,[4],inactive: 0.052
same,scaled lipid accumulation score,[5],inactive: ≤ 0
COC(=O)[C@H]1[C@H]2C[C@@H]3c4[nH]c5cc(OC)ccc5c4CCN3C[C@H]2C[C@@H](OC(=O)c2cc(OC)c(OC)c(OC)c2)[C@@H]1OC [Reserpine],scaled lipid accumulation score,[5],active: 1.18
COc1ccc(Cc2cnc(N)nc2N)cc1OC,scaled lipid accumulation score,[5],inactive: ≤ 0
CC(Cc1ccccc1)(NC(=O)CN)c1ccccc1 (configuration not stated) [Remacemide hydrochloride],scaled lipid accumulation score,[5],inactive: 0.479
COc1cc(C)c(Sc2cnc(NC(=O)c3ccc(CNC(C)C(C)C)cc3)s2)cc1C(=O)N1CCN(C(C)=O)CC1 (configuration not stated),scaled lipid accumulation score,[1],inactive: 0.006
same,scaled lipid accumulation score,[2],inactive: ≤ 0
same,scaled lipid accumulation score,[3],inactive: 0.398
CC(C)[C@H](O)C(=O)O [(S)-(+)-2-hydroxy-3-Methylbutyric Acid],scaled lipid accumulation score,[6],inactive: ≤ 0
O=C(O)CCC(=O)N1CCC[C@H]1C(=O)O [N-Succinyl-L-proline],scaled lipid accumulation score,[5],inactive: ≤ 0
CNCC[C@H](Oc1cccc2ccccc12)c1cccs1,scaled lipid accumulation score,[5],active: 0.953
CCCCCCCCCCCCC/C=C/[C@@H](O)[C@H](CO)NC(=O)CCCCCCCCCCCCCCC [C16 Ceramide],scaled lipid accumulation score,[6],inactive: ≤ -0.021
C[C@@H](Oc1cc(-n2cnc3ccc(CN4CCN(C)CC4)cc32)sc1C(N)=O)c1ccccc1C(F)(F)F,scaled lipid accumulation score,[1],inactive: ≤ 0
same,scaled lipid accumulation score,[2],inactive: 0.039
same,scaled lipid accumulation score,[5],inactive: 0.788
CC1CCC(C(C)C)C(O)C1 (stereo not drawn) [Menthol(-)],scaled lipid accumulation score,[5],inactive: ≤ -0.027
Br.CN(C)CCCC1(c2ccc(F)cc2)OCc2cc(C#N)ccc21 (configuration not stated) [Citalopram hydrobromide],scaled lipid accumulation score,[5],active: 0.952
CO[C@@]1(NC(=O)Cc2cccs2)C(=O)N2C(C(=O)O)=C(COC(N)=O)CS[C@@H]21 [Cefoxitin sodium],scaled lipid accumulation score,library stock concentration: 4.5 mM,inactive: ≤ 0
same,scaled lipid accumulation score,[5],inactive: ≤ 0
CO[C@@]1(NC(=O)Cc2cccs2)C(=O)N2C(C(=O)O)=C(COC(N)=O)CS[C@@H]21 [Cefoxitin sodium salt],scaled lipid accumulation score,,inactive: ≤ 0
N#CC(=Cc1ccc(O)c(O)c1)C(=O)NCc1ccccc1 [AG-490 (Tyrphostin B42)],scaled lipid accumulation score,[4],inactive: ≤ 0
same,scaled lipid accumulation score,[5],inactive: ≤ 0
CCCCCCCCCCCCCCCC(=O)OCC [Palmitic Acid ethyl ester],scaled lipid accumulation score,[6],inactive: ≤ 0
Cc1cncc(CN2CCC(=C3c4ccc(Cl)cc4CCc4cccnc43)CC2)c1.O=C(O)C=CC(=O)O [Rupatadine Fumarate],scaled lipid accumulation score,[5],active: 0.862
CC1(COc2ccc3c(c2)ncn3-c2ccc3cccc(N4CCC(N)CC4)c3n2)COC1,scaled lipid accumulation score,[5],inactive: 0.404
COc1ccccc1-c1cc(Nc2cccc(CS(N)(=O)=O)c2)ncn1,scaled lipid accumulation score,[4],inactive: 0.066
same,scaled lipid accumulation score,[5],inactive: 0.266
O=C(O)CCC/C=C\C[C@@H]1[C@@H](/C=C/C(=O)COc2cccc(C(F)(F)F)c2)[C@H](O)C[C@@H]1O [15-keto Fluprostenol],scaled lipid accumulation score,[6],inactive: ≤ 0
NC[C@H]1c(c2C[C@@H]([C@]3(C4)CC(CC45)CC(C5)C3)O1)ccc(O)c2O.Cl,scaled lipid accumulation score,[5],active: 1.19
NS(=O)(=O)c1cccc2c1c([N+](=O)[O-])cc1nc(O)c(O)nc12 [NBQX disodium salt],scaled lipid accumulation score,[5],inactive: ≤ -0.006
NS(=O)(=O)c1cccc2c1c([N+](=O)[O-])cc1nc(O)c(O)nc12,scaled lipid accumulation score,[5],inactive: ≤ 0
NS(=O)(=O)c1cccc2c1c([N+](=O)[O-])cc1nc(O)c(O)nc12 [NBQX disodium],scaled lipid accumulation score,[5],inactive: ≤ -0.055
N#CC(=C(/N)Sc1ccccc1N)/C(C#N)=C(/N)Sc1ccccc1N,scaled lipid accumulation score,[5],inactive: ≤ 0
same,scaled lipid accumulation score,library stock concentration: 13.1 mM,inactive: 0.018
COc1cc2c(cc1OC)C(=O)C(CC1CCN(Cc3ccccc3)CC1)C2 (configuration not stated) [Donepezil hydrochloride],scaled lipid accumulation score,library stock concentration: 4.8 mM,inactive: 0.193
COc1cc2c(cc1OC)C(=O)C(CC1CCN(Cc3ccccc3)CC1)C2 (configuration not stated) [Donepezil],scaled lipid accumulation score,[5],inactive: ≤ 0
NC(N)=NCc1cccc(I)c1 [m-Iodobenzylguanidine hemisulfate],scaled lipid accumulation score,[5],inactive: ≤ -0.051
CC(CCCO)C1CCC2C3C(O)CC4CC(=O)CCC4(C)C3CC(O)C12C (configuration not stated) [3-keto Petromyzonol],scaled lipid accumulation score,[6],inactive: ≤ 0
COCC1=C(C(=O)OC(C)OC(=O)OC(C)C)N2C(=O)[C@@H](NC(=O)/C(=N\OC)c3csc(N)n3)[C@H]2SC1 (some centres not stated),scaled lipid accumulation score,[5],inactive: ≤ 0
COCC1=C(C(=O)OC(C)OC(=O)OC(C)C)N2C(=O)[C@@H](NC(=O)/C(=N\OC)c3csc(N)n3)[C@H]2SC1 (some centres not stated) [Cefpodoxime proxetil],scaled lipid accumulation score,library stock concentration: 3.6 mM,inactive: ≤ 0
CCN(CC)CCOC(=O)C(c1ccccc1)C1CCCCC1 (configuration not stated) [Drofenine hydrochloride],scaled lipid accumulation score,,inactive: 0.317
same,scaled lipid accumulation score,[5],inactive: 0.335
COc1ccccc1OCCNCC(O)COc1cccc2[nH]c3ccccc3c12 (configuration not stated) [Carvedilol],scaled lipid accumulation score,[5],active: 1.57
COc1cc(Cc2cnc(N)nc2N)cc(OC)c1OC [Trimethoprim],scaled lipid accumulation score,,inactive: ≤ 0
same,scaled lipid accumulation score,[4],inactive: ≤ 0
same,scaled lipid accumulation score,library stock concentration: 6.9 mM,inactive: ≤ 0
same,scaled lipid accumulation score,[5],inactive: 0.058 and inactive: ≤ 0
NC(=O)C(=O)O [Sodium Oxamate],scaled lipid accumulation score,[5],inactive: ≤ -0.055
COc1cc2c(cc1OC)CN(CCc1ccc(NC(=O)c3cc(OC)c(OC)cc3NC(=O)c3cnc4ccccc4c3)cc1)CC2 [Tariquidar],scaled lipid accumulation score,[4],inactive: 0.008
same,scaled lipid accumulation score,[5],inactive: 0.303
NC1(Cc2ccc(Cl)cc2)CCN(c2ncnc3[nH]ccc23)CC1,scaled lipid accumulation score,[5],active: 1.09
"FC(F)(F)c1cc(COC2CCCNC2c2ccccc2)cc(C(F)(F)F)c1 [L-733,060 hydrochloride]",scaled lipid accumulation score,[5],inactive: 0.518
CS(=O)(=O)c1ccc(C2=C(c3ccccc3)C(=O)OC2)cc1 [Rofecoxib],scaled lipid accumulation score,[4],inactive: ≤ 0
same,scaled lipid accumulation score,library stock concentration: 6.4 mM,inactive: ≤ -0.006 and inactive: ≤ 0
same,scaled lipid accumulation score,[5],inactive: 0.033 and inactive: ≤ -0.027
CS(=O)(=O)c1ccc(C2=C(c3ccccc3)C(=O)OC2)cc1,scaled lipid accumulation score,[5],inactive: ≤ 0
Cn1c(=O)c2[nH]cnc2n(C)c1=O [Aminophylline ethylenediamine],scaled lipid accumulation score,[5],inactive: ≤ 0
Cn1c(=O)c2[nH]cnc2n(C)c1=O [Oxtriphylline],scaled lipid accumulation score,library stock concentration: 7.1 mM,inactive: ≤ 0
Cn1c(=O)c2[nH]cnc2n(C)c1=O [Aminophylline],scaled lipid accumulation score,,inactive: ≤ 0
same,scaled lipid accumulation score,[4],inactive: ≤ 0
same,scaled lipid accumulation score,[5],inactive: 0.066
CC(=O)c1cc([N+](=O)[O-])c(Sc2cccc(Cl)c2Cl)s1,scaled lipid accumulation score,[4],inactive: ≤ -0.009
same,scaled lipid accumulation score,[5],inactive: 0.252
CCCCCC=CC=CC(O)CCCCCCCC(=O)OCC(COC(=O)CCCCCCCC=CC=CC(O)CCCCC)OC(=O)CCCCCCCC=CC=CC(O)CCCCC (configuration not stated) [Hydroxy Linoleins],scaled lipid accumulation score,[6],inactive: 0.061
C#C[C@]1(O)CC[C@H]2[C@@H]3CCc4cc(OC5CCCC5)ccc4[C@H]3CC[C@@]21C,scaled lipid accumulation score,[5],inactive: 0.426
Cc1ccnc2c1NC(=O)c1cccnc1N2C1CC1 [Viramune],scaled lipid accumulation score,[5],inactive: ≤ 0
Cc1ccnc2c1NC(=O)c1cccnc1N2C1CC1,scaled lipid accumulation score,[5],inactive: 0.213
Cc1ccnc2c1NC(=O)c1cccnc1N2C1CC1 [Nevirapine],scaled lipid accumulation score,[4],inactive: 0.081
same,scaled lipid accumulation score,[5],inactive: ≤ 0
